# Several values for one entry are separate records, joined by “and”; a condition that tells them apart may be missing. Equal values may be shown once. Screen size: about 280,000 compounds; about 100 (0.036%) were called active. Inconclusive means that the source gave no clear call. Such entries were picked first, then a sample of the others. Calls come from the whole dose curve; as a rule, active = well fitted inhibition curve with a large enough effect in the signal ratio, with a control signal flat (not every such curve was filed as active); inconclusive = small, poorly fitted or top-dose-only effect, or effect the other way, or a change in a side signal; inactive = no such curve, though single readings can be large or run the other way; the % refers to the signal ratio. A potency beside an inconclusive call is a rough fit, not a confirmed value. A note “side channel” means that the fit belongs to a control or component signal, not to the main read-out.
# Target: Muscleblind-like protein 1 (Homo sapiens) (UniProt Q9NR56)
# Experiment: qHTS Assay for Inhibitors of MBNL1-poly(CUG) RNA binding
# Settings: TR-FRET MBNL1-His/biotin-(CUG)12 binding, 665/545 ratio; series mostly up to 57.5 µM
# How it was run: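 TR-FRET readout: Ex 340 nm, 665/545 nm emission ratio, normalized to buffer-only (basal) and MBNL1-(CUG)12 controls. Complex of MBNL1-His with Biotin-(CUG)12, compounds 92 nM–58 uM, incubated 60 min at room temperature.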
# Potency is the fitted concentration of half-maximal effect; tags give direction and shape of the fitted curve or compound fluorescence and quenching.
# UniProt Q9NR56, sequence (Q9NR56 whole entry, looked up): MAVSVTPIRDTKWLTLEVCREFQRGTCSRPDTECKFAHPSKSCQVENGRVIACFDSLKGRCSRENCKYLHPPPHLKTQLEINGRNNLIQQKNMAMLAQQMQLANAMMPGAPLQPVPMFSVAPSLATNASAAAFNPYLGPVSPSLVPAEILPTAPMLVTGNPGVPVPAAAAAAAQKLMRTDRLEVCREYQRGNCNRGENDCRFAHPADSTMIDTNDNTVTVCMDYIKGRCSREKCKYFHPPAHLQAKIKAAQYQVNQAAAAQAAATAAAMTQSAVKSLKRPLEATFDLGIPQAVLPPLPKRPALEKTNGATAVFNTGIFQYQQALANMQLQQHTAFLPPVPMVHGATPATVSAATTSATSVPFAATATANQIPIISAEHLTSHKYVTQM
row,SMILES,Potency
1,O=C(N/N=C/c1cccnc1)c1cc(-c2cccs2)nc2ccccc12,"inconclusive: 39.8 µM [quencher, side channel, single point]"
2,O=C(Cc1csc(Nc2nc(=S)[nH]c3ccccc23)n1)NCc1ccccc1Cl,inactive
3,CC(=O)NCCN1C(=O)S/C(=C\c2cccs2)C1=O,"inconclusive: 14.1 µM [quencher, side channel, partial curve]"
4,CCOC(=O)c1snc(C(=O)NC2CCCCC2)c1N,inactive
5,NC1=NC(=O)/C(=C\c2ccco2)S1,"inconclusive: 11.2 µM [quencher, side channel, partial curve]"
6,O=C(CN1CCCCC1)NNC(=O)c1ccc([N+](=O)[O-])cc1,"inconclusive: 12.6 µM [quencher, partial curve]"
7,Cc1ccc2cc3c(NC(=O)c4ccco4)nn(C)c3nc2c1,"inconclusive: 11.2 µM [quencher, partial curve]"
8,O=C(c1cc2nc(-c3ccccc3)cc(C(F)(F)F)n2n1)N1CCN2CCCC2C1 (stereo not given),"inconclusive: 15.8 µM [quencher, side channel, partial curve]"
9,COC(=O)c1cc2ccsc2n1Cc1cc(=O)n2ccccc2n1,"inconclusive: 14.1 µM [quencher, side channel, partial curve, poor fit]"
10,CCCn1nc(NC(=O)C2CCCO2)c2cc3cc(C)ccc3nc21 (stereo not given),"inconclusive: 25.1 µM [quencher, side channel, partial curve]"
11,O=C(N/N=C/c1ccc(N2CCOCC2)o1)c1ccccc1[N+](=O)[O-],"inconclusive: 15.8 µM [quencher, side channel, partial curve]"
12,CC(C)n1cc(/C=C2/SC(=O)N(CC(=O)Nc3ccc4c(c3)OCO4)C2=O)c2ccccc21,inactive
13,CCN(CC)c1ccc(/C=c2\sc3nc4ccccc4n3c2=O)c(O)c1,"inconclusive: 39.8 µM [quencher, single point]"
14,COc1ccc(N2C(=O)/C(=C/c3ccc([N+](=O)[O-])cc3)N=C2C)c(OC)c1,"inconclusive: 17.8 µM [quencher, partial curve]"
15,O=C(OCc1cc(Cl)ccc1OC(F)F)c1ccc([N+](=O)[O-])o1,"inconclusive: 28.2 µM [quencher, side channel, partial curve]"
16,CCCC[n+]1ccn(-c2nc3ccccc3nc2[N-]S(=O)(=O)c2ccccc2)c1,"inconclusive: 20 µM [quencher, side channel, partial curve]"
17,CN(C)CCSc1nnc2[nH]c3ccccc3c2n1,"inconclusive: 15.8 µM [quencher, side channel, partial curve]"
18,Cc1cc2ccccn2c1C(=O)c1ccc(Cl)cc1,"inconclusive: 17.8 µM [quencher, side channel, partial curve]"
19,COc1ccc(NC(=O)COc2ccc(/C=C/c3cc[n+](C)cc3)cc2OC)cc1,"inconclusive: 8.91 µM [quencher, side channel, partial curve]"
20,CSC1=N/C(=C\c2ccccc2)C(=O)N1C,"inconclusive: 14.1 µM [quencher, side channel, partial curve]"

row,SMILES,Potency
1,COc1ccccc1P(=O)(c1ccccc1)c1ccc([N+](=O)[O-])cc1 (stereo not given),"inconclusive: 10 µM [quencher, side channel, partial curve]"
2,CCN1CCN(C(=O)c2cc3ccc(OC)cc3[nH]2)CC1,"inconclusive: 39.8 µM [quencher, side channel, single point]"
3,C=CCn1c(O)c(N=NC(=S)Nc2ccc(OC)cc2)c2ccccc21,"inconclusive: 7.94 µM [quencher, side channel, partial curve]"
4,Nc1c(Cl)ncnc1N/N=C/c1ccnc2ccccc12,"inconclusive: 3.55 µM [quencher, side channel, partial curve, poor fit]"
5,O=C(Nc1cccc(-c2cnc3ccccc3n2)c1)C1CC(=O)N(c2ccccc2)C1 (stereo not given),"inconclusive: 20 µM [quencher, side channel, partial curve]"
6,S=C(Nc1ccccn1)c1ccccn1,"inconclusive: 17.8 µM [quencher, side channel, partial curve, poor fit] and inconclusive: 25.1 µM [quencher, side channel, partial curve]"
7,c1ccc2c3nnc4n(c-3nc2c1)CCCS4,"inconclusive: 15.8 µM [quencher, side channel, partial curve]"
8,COC(=O)CCCC1=CC2=C(c3ccccc3)C(=O)C(C)(OC(=O)C3CCCC3)C(=O)C2=CN1CCN1CCOCC1 (stereo not given),"inconclusive: 7.94 µM [quencher, side channel, partial curve]"
9,COc1c(/C=N/NC(N)=S)c(C)nn1-c1ccccc1,inactive
10,O=[N+]([O-])c1ccc2nc(NCCCO)nc(-c3ccccc3)c2c1,"inconclusive: 10 µM [quencher, side channel, partial curve]"
11,Nc1nc(Nc2ccccc2)nc(NCCO)c1[N+](=O)[O-],"inconclusive: 15.8 µM [quencher, side channel, partial curve]"
12,C=CCC(C(=O)OC)(C(=O)OC)c1ccc([N+](=O)[O-])cc1[N+](=O)[O-],"inconclusive: 12.6 µM [quencher, side channel, partial curve]"
13,CNC(=S)Nc1ccccc1-c1ccccc1,inactive
14,O=C(CN(CC1CCCO1)S(=O)(=O)c1ccc(S(=O)(=O)NC2CC2)cc1)Nc1ccccc1 (stereo not given),"inconclusive: 39.8 µM [quencher, side channel, single point]"
15,O=C1C(=O)N(Cc2ccco2)C(c2cccs2)/C1=C(\O)c1cccc([N+](=O)[O-])c1 (stereo not given),"inconclusive: 39.8 µM [quencher, single point]"
16,O=C(c1cc2c(=O)n3ccccc3nc2s1)N1CCc2ccccc2C1,"inconclusive: 15.8 µM [quencher, side channel, partial curve]"
17,CCN(CC)CCOC(=O)c1ccc(NC(=O)/C=C/c2cccs2)cc1,"inconclusive: 17.8 µM [quencher, side channel, partial curve]"
18,COc1ccc(S(=O)(=O)N2CCN(C(=O)COc3ccccc3)CC2)cc1,inactive
19,COC(=O)c1ccc(NC(=S)N2CCN(Cc3ccccc3)CC2)cc1,inactive
20,N/N=C(/Cc1nc2ccccc2[nH]1)c1ccc([N+](=O)[O-])cc1,"inconclusive: 12.6 µM [quencher, side channel, partial curve]"

row,SMILES,Potency
1,O=[N+]([O-])C(/C=C(\Cl)[N+](=O)[O-])=C1N(Cc2ccc(Cl)nc2)CCN1Cc1ccc(Cl)nc1,"inconclusive: 20 µM [quencher, side channel, partial curve]"
2,COc1cc2c(cc1OC)C(c1cc3ccccc3oc1=O)=NC(C)(C)C2,"inconclusive: 25.1 µM [quencher, side channel, partial curve, poor fit]"
3,O=C(NCC1CCCO1)c1cccc(Oc2ccc([N+](=O)[O-])cc2)c1 (stereo not given),"inconclusive: 12.6 µM [quencher, side channel, partial curve]"
4,COc1ccc(C(=O)NCC(=O)N/N=C/c2ccc(C)o2)cc1OC,"inconclusive: 22.4 µM [quencher, side channel, partial curve]"
5,CC(=O)C1=C(C)NC(SCC(N)=O)=C(C#N)C1C (stereo not given),inactive
6,CCOC(=O)Cc1csc(NS(=O)(=O)c2ccc(Br)cc2)n1,inactive
7,CCN(CC)S(=O)(=O)c1ccc(N=Nc2c(C)[nH]n(C(N)=S)c2=O)cc1,"inconclusive: 10 µM [quencher, side channel, partial curve]"
8,COc1ccc(NC(=O)C2CCCO2)cc1 (stereo not given),"inconclusive: 0.316 µM [quencher, side channel, single point]"
9,O=C(Nc1ccon1)c1sc2cc(Cl)ccc2c1Cl,"inconclusive: 6.31 µM [quencher, side channel, partial curve]"
10,O=S(=O)(Cc1ccc(Cl)cc1)c1ccccc1-c1nnc(-c2ccccc2)o1,inactive
11,c1ccc(-c2noc(-c3cccc4ccccc34)n2)nc1,"inconclusive: 14.1 µM [quencher, side channel, partial curve]"
12,Cc1ccccc1N=Nc1c(N)n[nH]c1N,"inconclusive: 22.4 µM [quencher, side channel, partial curve]"
13,CCOC(=O)c1nc2sc(C)c(C)c2c(=O)[nH]1,inactive
14,C/C(=N\Nc1ccc([N+](=O)[O-])cc1)c1ccc(-n2nncc2C)cc1,"inconclusive: 12.6 µM [quencher, side channel, partial curve]"
15,C=CCc1ccc(OCCn2cccc2C=O)c(OC)c1,inactive
16,CN1C(C(=O)Nc2cccc(O)c2)=CC(c2cccs2)=NS1(=O)=O,"inconclusive: 25.1 µM [quencher, side channel, partial curve]"
17,CCSC1=N/C(=C\C=C2/Oc3ccccc3N2CC)C(=O)S1,"inconclusive: 31.6 µM [quencher, single point]"
18,CCOCCCNS(=O)(=O)c1ccc(NC(=O)c2ccc([N+](=O)[O-])cc2Cl)cc1,"inconclusive: 12.6 µM [quencher, side channel, partial curve]"
19,CCCSc1nc2c(c(=O)n1CC)SC(C)C2 (stereo not given),inactive
20,O=[N+]([O-])c1ccccc1CNc1ccc(F)c(Cl)c1,"inconclusive: 3.16 µM [quencher, side channel, single point]"

# Reference: PubChem BioAssay AID2675 (National Center for Advancing Translational Sciences (NCATS), 2010)
